The results in this text go back to PubChem BioAssay AID1159614 (National Center for Advancing Translational Sciences (NCATS), 2016).

Molecules are shown by their SMILES. The campaign covered roughly 45,000 compounds. About 65 (0.1%) were called active. The call rests on the fitted dose curve; in most records, active means well fitted activation curve with a large enough effect; inconclusive means small, poorly fitted or top-dose-only effect; inactive means no such curve, though single readings can be large or run the other way. The list shows a part of the results.

UniProt P54803, sequence (P54803 whole entry, looked up): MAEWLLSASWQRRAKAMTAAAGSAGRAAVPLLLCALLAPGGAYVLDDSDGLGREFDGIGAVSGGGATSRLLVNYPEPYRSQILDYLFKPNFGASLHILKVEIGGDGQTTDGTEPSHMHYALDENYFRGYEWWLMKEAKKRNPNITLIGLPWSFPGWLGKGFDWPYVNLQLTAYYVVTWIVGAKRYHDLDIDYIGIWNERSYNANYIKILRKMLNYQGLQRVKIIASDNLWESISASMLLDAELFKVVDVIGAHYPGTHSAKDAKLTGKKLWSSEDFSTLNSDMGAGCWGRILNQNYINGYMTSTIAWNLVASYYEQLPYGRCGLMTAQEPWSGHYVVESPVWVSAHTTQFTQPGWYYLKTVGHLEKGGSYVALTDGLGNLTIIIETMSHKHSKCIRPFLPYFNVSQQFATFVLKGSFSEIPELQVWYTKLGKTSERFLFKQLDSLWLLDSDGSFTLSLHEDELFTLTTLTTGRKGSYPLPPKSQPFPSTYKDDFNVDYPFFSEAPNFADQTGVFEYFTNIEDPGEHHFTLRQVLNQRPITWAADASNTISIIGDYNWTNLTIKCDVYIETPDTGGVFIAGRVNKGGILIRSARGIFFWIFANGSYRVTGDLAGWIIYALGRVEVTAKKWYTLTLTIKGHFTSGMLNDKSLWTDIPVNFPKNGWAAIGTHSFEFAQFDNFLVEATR

The target in this experiment is Galactocerebrosidase (Homo sapiens) (UniProt P54803). Kind of experiment: A Novel Cell-Based Assay to Identify Small Molecules for B -Galactocerebrosidase. Further: 0% is about no effect; nearly all actives have a fitted effect of over 65% in size. The note with it: 145M-Twi-hGALC-G270D cells (Twitcher mouse brain line with human GALC G270D), HMU-beta-Gal fluorescence, 48 h; series mostly up to 57.5 µM; activation: at the top concentration. The essentials:
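Live 145M-Twi cells (Twitcher mouse brain-derived, GALC-null) stably expressing human GALC-G270D, with a wild-type GALC line, were compound-treated. Residual GALC activity was then read as fluorescence from 0.1 mM final HMU-β-gal at pH 5.2; higher signal means activation.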
Turning to `CCN(c1cc(C)cc(C)c1)S(=O)(=O)c1nnc(NC(=O)C2CCCCC2)s1`, the “activation” value is inactive: -6.27%.
The value for `O=C(Nc1ccc(Br)c2cccnc12)c1cccc2ccccc12` was inactive: 0.71%.
The value for `CCOc1ccc(NC(=O)Cn2c(=O)n(Cc3ccco3)c(=O)c3oc4ccccc4c32)cc1` was inactive: -18.4%; that for `COc1ccc(NC(=O)c2oc3ccccc3c2NC(=O)c2cccc(F)c2)c(OC)c1` was inactive: -4.83%; that for `COc1cc2ccccc2cc1C(=O)Nc1ccc2oc(-c3ccc(F)cc3)nc2c1` was inactive: -6.77%.
The value for `CCc1ccccc1NC(=O)c1nnn(-c2ccc(F)cc2)c1C` was inactive: -3.51%.
Turning to `Cc1cc(C)cc(-n2c(SCC(=O)N3CCCCC3)nc3c([nH]c4ccccc43)c2=O)c1`, the “activation” value was inactive: -8.18%.
The value for `CC1CCN(S(=O)(=O)c2ccc3c(c2)oc(=O)n3CC(=O)NCc2ccc(F)cc2)CC1` was inactive: -21.4%; that for `CCOC(=O)c1ccccc1NC(=O)CSc1cn(CC(=O)N2CCCCC2)c2ccccc12` was inactive: -6.79%; that for `Cc1ccc(Oc2c(C(F)(F)F)oc3c(CN4CCCCC4)c(O)ccc3c2=O)cc1` was inactive: -11.8%.
Regarding `CCOc1cccc2cc(-c3nc(-c4ccccc4C)no3)c(=O)oc12`, the “activation” value was inactive: -7.93%.
Consider `Cc1cc(F)ccc1NC(=O)CCS(=O)(=O)c1ccc2c(c1)NC(=O)CO2`, for which the “activation” value is inactive: -9.92%.
The value for `O=C(Nc1ccc(Cl)cc1)C1CCCN(S(=O)(=O)c2ccc3[nH]c(=O)ccc3c2)C1` (stereo unspecified) was inactive: -0.566%.
For `CCC(C(=O)Nc1ccc(C(=O)OC)cc1)n1c(=O)c(-c2ccccc2NC(C)=O)nc2ccccc21` (stereo unspecified), the “activation” value is inactive: -27.5%.
`CCOC(=O)c1cccc(NC(=O)c2oc3c(c2C)-c2[nH]ncc2CC3)c1`: the “activation” value was inactive: -8.11%.
The value for `CCCN(C(=O)c1cc2c(s1)-c1ccccc1OC2)c1ccccc1F` was inactive: -6.17%; that for `CCc1ccccc1NS(=O)(=O)c1ccc2[nH]cc(C(=O)N3CCCCC3)c(=O)c2c1` was inactive: -6.33%.
For the compound `COc1cc(CN(C(=O)Nc2ccccc2)c2ccccn2)cc(OC)c1OC`, the “activation” value is inactive: -10.7%.
The value for `COc1cccc(CNC(=O)C2CCCN(S(=O)(=O)c3ccc4c(ccn4C)c3)C2)c1` (stereo unspecified) was inactive: -24.1%; that for `Cc1nc2c(-c3ccccc3)c(C)nn2c(C)c1CCC(=O)NC(C)c1ccccc1` (stereo unspecified) was inactive: -38%; that for `CCCC(=O)Nc1cc(C)c(O)c(-c2nc3ncccc3o2)c1` was inactive: -5.12%.
The value for `Cc1ccc(NC(=O)c2cc(S(=O)(=O)NCCC3=CCCCC3)ccc2F)cc1F` was inactive: -10.2%.
The value for `COc1ccc(Cl)cc1NC(=O)c1ccc2nc(Cc3ccccc3)oc2c1` was inactive: -11.9%; that for `CC(C)CCNC(=O)c1cccc(Nc2nc3ccccc3n3nnnc23)c1` was inactive: -28.4%; that for `CCc1ccc(C(=O)c2cn(CC(=O)Nc3ccc(F)c(F)c3)c3cc(OC)c(OC)cc3c2=O)cc1` was inactive: -32.5%.
Take `CCCCNC(=O)C1CCCN(Cc2nc(-c3ccc(Cl)cc3)oc2C)C1` (stereo unspecified): the “activation” value was inactive: -10.5%.
